# Reference: PubChem BioAssay AID360 (National Center for Advancing Translational Sciences (NCATS), 2006)
# Screen size: about 48,000 compounds; about 550 (1.1%) were called active. Not shown: some 4% with an inconclusive outcome. Cut-off read from the data, not from the text of the source: active = potency below about 15 µM; inconclusive = mostly about 16 µM to 33 µM; inactive = weaker than that. Some of the results follow.
# Molecular target: Lysosomal acid glucosylceramidase (Homo sapiens) (UniProt P04062)
# UniProt P04062, sequence (P04062 whole entry, looked up): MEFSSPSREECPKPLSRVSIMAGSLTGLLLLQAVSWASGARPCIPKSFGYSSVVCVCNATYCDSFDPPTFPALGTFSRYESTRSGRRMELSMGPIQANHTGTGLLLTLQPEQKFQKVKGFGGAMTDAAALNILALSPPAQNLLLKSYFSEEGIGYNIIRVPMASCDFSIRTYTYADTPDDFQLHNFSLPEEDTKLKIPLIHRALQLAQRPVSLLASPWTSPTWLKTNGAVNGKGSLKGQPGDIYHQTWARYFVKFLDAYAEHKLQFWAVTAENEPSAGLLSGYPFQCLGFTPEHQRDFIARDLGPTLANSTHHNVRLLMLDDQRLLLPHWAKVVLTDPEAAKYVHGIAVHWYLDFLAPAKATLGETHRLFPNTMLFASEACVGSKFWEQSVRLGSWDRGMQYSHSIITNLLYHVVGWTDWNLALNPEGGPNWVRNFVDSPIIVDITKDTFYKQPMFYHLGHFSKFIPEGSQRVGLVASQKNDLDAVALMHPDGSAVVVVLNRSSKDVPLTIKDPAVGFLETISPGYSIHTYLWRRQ
# Assay: Glucocerebrosidase;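 note: the screen sought inhibitors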
# Settings: purified enzyme, resorufin glucoside fluorescence (screen aimed at inhibitors), 20 min
# Method in brief: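 Wild-type enzyme at 0.2 nM final in 50mM citric acid/KH2PO4, 10mM sodium taurocholate, 0.01% tween-20, pH 5.9, with resorufin beta-D-glucopyranoside at 30 uM final. Compounds titrated, 20 min at RT, red fluorescence read; AC50 from titration.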
# Potency is the fitted concentration of half-maximal effect.
row,Structure (SMILES),Potency
1,Cc1ccc2cc(CN(Cc3ccco3)C(=O)c3cccs3)c(=O)[nH]c2c1,inactive: > 76.9 µM
2,O=C(Nc1cnn(Cc2ccc(Cl)cc2)c1)c1cnccn1,inactive: > 76.9 µM
3,CCC(NC(=O)Cn1cnc2c(=O)n(C)c(=O)n(C)c21)c1ccccc1 (stereo not drawn),inactive: > 76.9 µM
4,CCCn1c(-c2cccs2)nc2ccccc21,inactive: > 76.9 µM
5,O=S(=O)(c1cccc2nsnc12)N1CCCC1,inactive: > 76.9 µM
6,COCC(C)NCc1ccccc1C (stereo not drawn),inactive: > 76.9 µM
7,Cn1cnnc1SCC(=O)Nc1ccccc1C(=O)NC1CCCC1,inactive: > 76.9 µM
8,COC(=O)c1nonc1NCn1nnc2ccccc21,inactive: > 76.9 µM
9,Cc1cc(C)n(C(=O)c2ccc(C)c(S(=O)(=O)N3CCCC3)c2)n1,inactive: > 76.9 µM
10,COC(=O)c1sccc1NC(=O)CSc1nnnn1-c1ccccc1F,inactive: > 76.9 µM
11,CCOc1ccc(N2C(=O)C3CCCN3C2=O)cc1 (stereo not drawn),inactive: > 76.9 µM
12,COc1cc(C(O)P(=O)(OC(C)C)c2ccc(N(C)C)cc2)cc(OC)c1OC (stereo not drawn),inactive: > 76.9 µM
13,Cc1ccc(SCc2cc(=O)n3[nH]c(C)nc3n2)cc1,inactive: > 76.9 µM
14,CCOC(=O)C1CCN(c2c(NCc3ccc(C(=O)NCCC(C)C)cc3)c(=O)c2=O)CC1,inactive: > 76.9 µM
15,Cc1ccc(Cn2c(CN3CCOCC3)nc3c2c(=O)[nH]c(=O)n3C)cc1,inactive: > 76.9 µM
16,CCOc1ccc(OCC)c(NC(=O)C2CCN(S(=O)(=O)c3c(C)noc3C)CC2)c1,inactive: > 76.9 µM
17,O=C(CCNC(=O)Cn1cnc2ccccc2c1=O)NCCC1=CCCCC1,inactive: > 76.9 µM
18,CCOC(=O)N1CCN(S(=O)(=O)c2cccs2)CC1,inactive: > 76.9 µM
19,CCOC(=O)CSc1nnc(Cn2nnc(-c3ccccc3)n2)n1CC,inactive: > 76.9 µM
20,Cc1ccc(NC(=O)CN(c2ccccc2F)S(C)(=O)=O)cc1,inactive: > 76.9 µM
21,COC(=O)c1ccccc1Nc1ccccc1,inactive: > 76.9 µM
22,COc1ccc(Cc2nnc3c4cnn(C)c4ncn23)cc1,inactive: > 76.9 µM
23,CN1C(=S)SC(/[N+]([O-])=C\c2ccco2)C1(C)C (stereo not drawn),inactive: > 76.9 µM
24,COc1cccc(NS(=O)(=O)c2ccc(OC)c(OC)c2)c1,inactive: > 76.9 µM

row,Structure (SMILES),Potency
1,COCCCNc1nc2ccccc2nc1NS(=O)(=O)c1cccs1,inactive: > 76.9 µM
2,Cn1c(=O)c2c(nc(SCc3cccnc3)n2Cc2ccccc2)n(C)c1=O,inactive: > 76.9 µM
3,CCCCN(CCCNC(=O)C1CCN(S(=O)(=O)CC)CC1)c1ccccc1,inactive
4,CCn1nnc(-c2ccccc2NC(=O)c2cccc(-n3cnnn3)c2)n1,inactive: > 76.9 µM
5,O=C(c1ccco1)N1CCN(C(=O)c2snc3ccc(Cl)cc23)CC1,inactive: > 76.9 µM
6,CC1(C)C2CCC1(CS(=O)(=O)N1CCCc3ccccc31)C(=O)C2 (stereo not drawn),inactive: > 76.9 µM
7,Cc1cccc(-n2c(SCC(=O)N3CCCC3)nnc2-c2ccccn2)c1C,inactive: > 76.9 µM
8,C=CCN1C(=Nc2ccccc2)SC/C1=C\C(=O)OC,inactive: > 76.9 µM
9,COc1ccc2[nH]c(=O)c(CN(CCO)S(=O)(=O)c3ccc4c(c3)OCCO4)cc2c1,inactive: > 76.9 µM
10,O=C(OCc1ccccc1)c1ccc(Br)o1,inactive: > 76.9 µM
11,CCC(=O)Nc1cccc(-c2nc3ccccc3o2)c1,inactive: > 76.9 µM
12,Cn1c(=O)c(NC(=O)c2ccccc2)c2n(c1=S)CCCCC2,inactive: > 76.9 µM
13,CN(C)c1ccc(-c2nnn(Cc3ccccc3Br)n2)cc1,inactive: > 76.9 µM
14,CC(=O)Nc1cccc(OCC(=O)Nc2ccc(F)cc2)c1,inactive: > 76.9 µM
15,O=C(CSc1nnc(-c2ccccc2)n1Cc1ccco1)Nc1ccc2c(c1)OCCO2,inactive: > 76.9 µM
16,O=C(c1cccs1)N(Cc1ccccn1)Cc1ccco1,inactive: > 76.9 µM
17,O=C(Cc1ccccc1)Nc1ccc2oc(-c3ccncc3)nc2c1,inactive: > 76.9 µM
18,Cc1cnc(NC(=O)COc2ccccc2Cl)s1,inactive: > 76.9 µM
19,CCOC(=O)c1c(NC(=O)CSc2nnnn2-c2ccc3c(c2)OCCO3)sc(C)c1C,inactive: > 76.9 µM
20,CCOC(=O)CNC(=O)CSc1nc(C)cc(C)c1C#N,inactive: > 76.9 µM
21,COC(=O)CN(n1cnnc1)S(=O)(=O)c1ccc(C)cc1,inactive: > 76.9 µM
22,Cc1cc(C(=O)NCc2ccccc2F)cs1,inactive: > 76.9 µM
23,CCn1c(SCCC(=O)Nc2ccccc2)nnc1-c1ccc(OC)cc1,inactive: > 76.9 µM
24,CCOc1cccc(Oc2ccc(C(F)(F)F)cn2)c1,inactive: > 76.9 µM

row,Structure (SMILES),Potency
1,Cc1cccc(-n2ncc3c(NCc4cccs4)ncnc32)c1,active: 14.5 µM
2,Cc1ccc(-c2cc(C(=O)NCc3cccs3)no2)cc1,inactive: > 76.9 µM
3,COC(=O)C1(C(=O)OC)Sc2ccccc2C1=O,inactive: > 76.9 µM
4,O=C(CSc1nnc2scc(-c3ccccc3)n12)NCC1CCCO1 (stereo not drawn),inactive: > 76.9 µM
5,Nc1ncc2c(n1)CC(c1ccco1)CC2=O (stereo not drawn),inactive: > 76.9 µM
6,OC1(c2cccnc2)CCN(Cc2nnnn2C2CCCCC2)CC1,inactive: > 76.9 µM
7,CCOC(=O)c1ccc(NC(=O)Nc2c(C)nn(C)c2C)cc1,inactive: > 76.9 µM
8,O=C(CCC1(C(=O)O)CCC(=O)NC1)NCc1ccccc1 (stereo not drawn),inactive: > 76.9 µM
9,CC(C)N1C(=O)CCC1C(=O)N1CCCc2ccccc21 (stereo not drawn),inactive: > 76.9 µM
10,Cc1ccc(S(=O)(=O)N(C)Cc2nc(-c3ccccn3)no2)cc1,inactive: > 76.9 µM
11,Cc1cc(C)c(C(=O)CC2(O)C(=O)Nc3ccccc32)cc1C (stereo not drawn),inactive: > 76.9 µM
12,CCN(CC)C(=O)CSc1nc2ccccc2c(=O)n1-c1cccc(OC)c1,inactive: > 76.9 µM
13,CC(C)C(C(=O)C=[N+]=[N-])N1C(=O)c2ccccc2C1=O (stereo not drawn),inactive: > 76.9 µM
14,COc1ccccc1CNC(=O)c1oc2ccc(S(=O)(=O)N3CCCC3)cc2c1C,inactive: > 76.9 µM
15,COCCCNC(=O)Nc1ccc(Br)cc1Cl,inactive: > 76.9 µM
16,CC(C)(C)c1nc(CN2CCOCC2)ccc1O,inactive: > 76.9 µM
17,O=C(c1ccccc1)c1ccc(CN2C(=O)c3ccccc3C2=O)o1,inactive: > 76.9 µM
18,Cc1cccc(C)c1NC(=O)C(c1ccccc1)N1CCC2(CC1)OCCO2 (stereo not drawn),inactive: > 76.9 µM
19,Cc1nn(C)c(C)c1S(=O)(=O)NCc1cccs1,inactive: > 76.9 µM
20,O=C(CSCc1cnn(-c2ccccc2)c1-n1cccc1)NCCN1CCOCC1,inactive
21,Cc1ccc(NC(=O)CS(=O)CC(=O)NC(C)CCc2ccco2)cc1Cl (stereo not drawn),inactive: > 76.9 µM
22,N#Cc1c(N)c(C(=O)c2ccccc2)n2c1CCC2,inactive: > 76.9 µM
23,CCOC(=O)N1CCN(C(=O)CSCc2nc(-c3ccccc3C)oc2C)CC1,inactive: > 76.9 µM
24,Cc1ccc(C2C(C#N)=C(N)Oc3nc(-c4ccccc4)[nH]c32)o1 (stereo not drawn),inactive: > 76.9 µM

row,Structure (SMILES),Potency
1,Cc1ccc(NC(=O)COC(=O)c2ccc3c(c2)NC(=O)C2CCCN32)cc1 (stereo not drawn),inactive: > 76.9 µM
2,CCOC(=O)C1=C(C)SC2=NS(=O)(=O)CCN21,inactive: > 76.9 µM
3,COc1cccc(NC(=O)CCP(C)(=O)O)c1,inactive: > 76.9 µM
4,O=C(O)C1C2C=CC(C2)C1C(=O)N1CCOCC1 (stereo not drawn),inactive: > 76.9 µM
5,Cc1nc2cc(CO)ccc2s1,inactive: > 76.9 µM
6,CC1=C/C(=C/N(C)c2ccccc2)C(=O)S1,inactive: > 76.9 µM
7,Cc1ccccc1CN(c1ccc(C(N)=O)cc1)S(C)(=O)=O,inactive: > 76.9 µM
8,O=C(c1ccccc1)c1ccc2nc[nH]c2c1,inactive: > 76.9 µM
9,COc1ccc(/C(O)=C2/C(=O)C(=O)N(CCN(C)C)C2c2ccc(F)cc2)cc1Cl (stereo not drawn),inactive: > 76.9 µM
10,CCCC12CN(C(=O)c3ccc(OC)cc3)CC(C)(CN(C(=O)c3ccc(OC)cc3)C1)C2=O,inactive: > 76.9 µM
11,Cc1c(C(=O)Nc2cccc(Cl)c2)oc2ccc(S(=O)(=O)N3CCC4(CC3)OCCO4)cc12,inactive: > 76.9 µM
12,COc1ccccc1N1CCN(C(=O)Cn2nnc(-c3ccncc3)n2)CC1,inactive: > 76.9 µM
13,O=S(=O)(c1ccc(OCC(O)CN2CCC(Cc3ccccc3)CC2)cc1)N1CCOCC1 (stereo not drawn),inactive: > 76.9 µM
14,CCCOC(=O)Cc1c(O)c2ccccc2[nH]c1=O,inactive: > 76.9 µM
15,CCn1c(SCC(=O)Nc2ccccc2-c2ccccc2)nnc1-c1ccoc1C,inactive: > 76.9 µM
16,Cc1ccc(-c2cc(=O)[nH][nH]2)c(C)c1,inactive: > 76.9 µM
17,CC(C)CC(C(=O)Nc1oc(-c2ccco2)c(-c2ccco2)c1C#N)N1C(=O)c2ccccc2C1=O (stereo not drawn),inactive: > 76.9 µM
18,CCn1cc(C(=O)N2CCCC2)c(=O)c2cc(S(=O)(=O)N3CCOCC3)ccc21,inactive: > 76.9 µM
19,Cn1c(=O)cc(OCC(=O)Nc2ccccn2)c2ccccc21,inactive: > 76.9 µM
20,C=CCNS(=O)(=O)c1ccc(OCC(=O)OC)cc1,inactive: > 76.9 µM
21,COc1cc(C2c3c(oc4c(C)cc(C)cc4c3=O)C(=O)N2Cc2cccnc2)cc(OC)c1OC (stereo not drawn),inactive: > 76.9 µM
